# Assay results taken from paper PMC4336329 (PLoS ONE, 2015).
# In all, about 310,000 compounds went through this assay and about 2,200 (0.71%) showed an effect of 50% or more. Effects have a minus sign here. The list shows a part of the results.
# Target: human ether-à-go-go-related gene (hERG) potassium channel (human, UniProt Q12809)
# Assay: primary screen, population patch clamp on CHO cells stably expressing hERG
# human ether-à-go-go-related gene (hERG) potassium channel, sequence (Q12809 whole entry, looked up): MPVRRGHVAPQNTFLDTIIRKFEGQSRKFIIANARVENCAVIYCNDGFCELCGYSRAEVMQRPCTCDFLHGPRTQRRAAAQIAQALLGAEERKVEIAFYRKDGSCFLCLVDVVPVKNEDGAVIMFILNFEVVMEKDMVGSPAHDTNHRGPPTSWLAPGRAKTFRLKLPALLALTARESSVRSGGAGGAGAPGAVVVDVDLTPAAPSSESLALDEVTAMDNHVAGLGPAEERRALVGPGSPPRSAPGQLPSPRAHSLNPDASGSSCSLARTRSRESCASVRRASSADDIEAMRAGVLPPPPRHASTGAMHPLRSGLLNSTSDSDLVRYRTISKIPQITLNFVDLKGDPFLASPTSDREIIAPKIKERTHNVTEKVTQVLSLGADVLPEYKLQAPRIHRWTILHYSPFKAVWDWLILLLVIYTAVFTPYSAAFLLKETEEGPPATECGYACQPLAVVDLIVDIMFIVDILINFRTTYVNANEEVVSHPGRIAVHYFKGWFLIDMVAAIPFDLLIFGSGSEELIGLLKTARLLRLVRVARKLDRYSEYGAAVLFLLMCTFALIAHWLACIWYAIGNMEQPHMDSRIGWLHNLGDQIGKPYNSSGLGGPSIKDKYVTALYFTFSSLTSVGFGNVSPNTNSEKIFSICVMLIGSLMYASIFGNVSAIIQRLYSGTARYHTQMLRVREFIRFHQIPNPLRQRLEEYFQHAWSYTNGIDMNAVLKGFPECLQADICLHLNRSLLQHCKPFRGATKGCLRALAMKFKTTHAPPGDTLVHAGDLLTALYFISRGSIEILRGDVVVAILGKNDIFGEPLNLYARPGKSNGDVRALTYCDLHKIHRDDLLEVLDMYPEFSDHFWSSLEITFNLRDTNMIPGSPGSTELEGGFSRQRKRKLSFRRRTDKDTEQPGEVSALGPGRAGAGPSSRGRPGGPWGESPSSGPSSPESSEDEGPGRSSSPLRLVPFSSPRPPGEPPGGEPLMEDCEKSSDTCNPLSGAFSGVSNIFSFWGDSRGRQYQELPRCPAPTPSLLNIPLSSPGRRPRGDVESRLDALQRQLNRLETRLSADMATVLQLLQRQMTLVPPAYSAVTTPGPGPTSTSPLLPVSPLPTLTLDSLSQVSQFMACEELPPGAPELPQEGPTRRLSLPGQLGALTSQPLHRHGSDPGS
row,Compound,"hERG current change (%, negative = inhibition) at 1uM"
1,COc1cccc(-c2coc3cc4oc(=O)c(CC(=O)O)c(C)c4cc23)c1,23.4%
2,Cc1cc(OCC(=O)N2CCOCC2)ccc1NC(=O)c1ccccc1C,18.2%
3,Cc1ccc2cc(COC(=O)c3ccco3)c(=O)[nH]c2c1,7.94%
4,CC1(C)CC(=O)C2=C(C1)Nc1ccccc1N(C(=O)C1CC1)C2c1ccco1 (stereo not shown),9.24%
5,COC(=O)c1cccc(N(C(=O)CNC(=O)c2cccs2)C(C(=O)NCC2CCCO2)c2ccc(OC)c(OC)c2)c1 (stereo not shown),12%
6,Cc1c(C(=O)N(C)CCc2cnn(C)c2)oc2c(F)cccc12,11.1%
7,O=C(c1ccc(Cl)c(S(=O)(=O)N2CCCC2)c1)N1CCN(c2ccccn2)CC1,2.38%
8,COc1ccccc1N1CCN(Cc2nc(N)nc(Nc3ccc(C)c(Cl)c3)n2)CC1,-21.1%
9,Cc1cccc(OCC(O)CN2C(C)(C)CC(O)CC2(C)C)c1C (stereo not shown),-31.6%
10,Cc1cc(NC(=O)CSc2cn(CCNC(=O)c3ccc(F)cc3)c3ccccc23)no1,-0.366%
11,CCCn1c(NCc2cc(C)ccc2O)nc2ccccc21,5.72%
12,CCCn1cc(CN2CCC(C(=O)Nc3cccc(-c4cscn4)c3)CC2)c(C)n1,0.151%
13,Cc1cc(C)c(C)c(Oc2ncnc(N)c2[N+](=O)[O-])c1,11.9%
14,Cc1ccccc1-c1ccc(CN2CCN(C)C(CCO)C2)cc1 (stereo not shown),1.12%
15,COc1cc(/C=N/Nc2nc(C)cc(=O)[nH]2)ccc1OC(=O)c1cccnc1,11.4%
16,CCOc1ccccc1C(=O)OCC(=O)NCCNC(=O)COC(=O)c1ccccc1OCC,15.3%
17,Cc1[nH][nH]c(=O)c1C=NCc1cccc(C(F)(F)F)c1,13.4%
18,Fc1ccccc1-c1nc(-c2ccc(Br)o2)no1,10.5%
19,CCOC(=O)NNc1nncc2ccccc12.Cl,8.4%
20,COc1ccc2c(c1)c(C(=O)CN1CCN(C)CC1)c(C)n2Cc1ccccc1,-9.79%
21,O=C(N/N=C\c1ccco1)Nc1cccc(Cl)c1,4.23%
22,C/C(=N\Nc1nc(-c2ccccc2O)nc2ccccc12)c1ccccc1,3.6%

row,Compound,"hERG current change (%, negative = inhibition) at 1uM"
1,Cc1ccc(O)c(NC(=O)c2cc(C)no2)c1,6.38%
2,Cc1nc(-c2nc(-c3c(C(=O)NNC(=O)Nc4ccccc4)noc3C)cs2)cs1,14.7%
3,COc1ccccc1NC(=O)COC(=O)/C=C/c1ccc2c(c1)OCO2,9.01%
4,CC(C)C[C@@H]1NC(=O)[C@H](CO)NC(=O)c2cc([N+](=O)[O-])cc(I)c2OCC[C@@H](C(N)=O)NC1=O,5.89%
5,COc1ccc(S(=O)(=O)NCc2ccc(C(=O)N3CCC4(CC3)OCCO4)cc2)cc1,-7.81%
6,CN(C(=O)COC(=O)c1ccc(Cl)c(S(=O)(=O)N2CCCCC2)c1)C1(C#N)CCCCC1,-6.43%
7,O=C(COc1ccc2ccccc2c1)N1CCN(CC2CC3C=CC2C3)CC1.O=C(O)C(=O)O (stereo not shown),12.7%
8,Cc1cc2c(cc1S(=O)(=O)Nc1ccc(F)cc1)n(C)c(=O)c(=O)n2C,11.4%
9,FC(F)(F)c1ccc(N2CCN(c3ncnc4c3nnn4Cc3ccccc3Cl)CC2)cc1,15.9%
10,Cc1nnc(NCc2ccncc2)c2ccccc12,2.74%
11,O=C(Oc1ccc(N(Cc2cccs2)C2=NS(=O)(=O)c3ccccc32)cc1)c1ccccc1Cl,0.886%
12,OCCCn1c(C(CO)Nc2nc(-c3ccc(Cl)cc3)cs2)nc2ccccc21 (stereo not shown),-2.81%
13,O=C(O/N=C\c1ccc(N2CCOCC2)c([N+](=O)[O-])c1)c1ccccc1Cl,-12.8%
14,CCOC(=O)N1[C@@H]2C=C(C)[C@@H]2[C@@H]2[C@@H](C)C(=O)N21,4.04%
15,CS(=O)(=O)Nc1ccccc1C(=O)N1CCOCC1,10.2%
16,COc1ccc(CNC(=O)c2c[nH]c3ccccc3c2=O)cc1,11.9%
17,CC(C)CCNC(=O)c1cc2c(s1)-c1ccccc1S(=O)(=O)C2,13.1%
18,C=CCn1c(SCC(=O)NC2CCCCC2)nnc1-c1ccccn1,5.62%
19,Cc1ccc2c(c1)N(CC(=O)N1CCc3ccccc3C1)C(=O)CO2,-3.29%
20,Clc1ccc(-c2nc3ccccc3n2OCc2ccccc2)cc1,-1.89%
21,CC1Sc2ccc(S(=O)(=O)N3CCC(C(=O)NCc4ccco4)CC3)cc2NC1=O (stereo not shown),5.49%
22,COCc1cc(=O)n2[nH]cc(-c3ccccc3)c2n1,12.9%

row,Compound,"hERG current change (%, negative = inhibition) at 1uM"
1,O=C(NCC1CC1)C1(S(=O)(=O)c2ccccc2)CC=CC1,13.8%
2,O=C(NCC1CCCO1)C1CCCN(S(=O)(=O)c2cccc(C(F)(F)F)c2)C1 (stereo not shown),10.4%
3,Cc1ccccc1C(=O)NN1CC(C(=O)OCc2ccc(Cl)c(Cl)c2)CC1=O (stereo not shown),1.58%
4,Cc1ccc(S(=O)(=O)/N=C(/Nc2ccc([N+](=O)[O-])cc2)c2ccccc2)cc1,8.66%
5,O=C(NNc1cc(Cl)ccc1Cl)c1c(F)cccc1Cl,14.3%
6,CCOC(=O)C1CCCN(Cc2cccs2)C1 (stereo not shown),7%
7,CCOC(=O)c1cc(-c2ccc(F)cc2)n(CC(=O)N2CCCC2)c1C,8.68%
8,CC(C)(C)c1ccc(OCC(=O)NNC(=O)Nc2ccccc2)cc1,-5.74%
9,Cc1sc2ncnc(N3CCC(C(=O)NNC(=O)COc4ccccc4F)CC3)c2c1C,-9.49%
10,Cc1nc(C(=O)NCCC(C)C)sc1C1(C)CC(c2ccccc2)=NO1 (stereo not shown),4.71%
11,Cc1ccc(N2C(=O)CC(SCC(=O)Nc3ccc(S(N)(=O)=O)cc3)C2=O)cc1 (stereo not shown),6.92%
12,COc1ccc(Nc2nc(N3CCOCC3)nc(N3CCOCC3)n2)c(OC)c1,10.8%
13,CC(C)CN(C(=O)COC(=O)CSc1ccccc1)c1c(N)n(Cc2ccccc2)c(=O)[nH]c1=O,11.6%
14,O=C1N=C(N2CCOCC2)S/C1=C/c1cc2c(cc1[N+](=O)[O-])OCO2,11.7%
15,CCCCCC(O)CCc1n[nH]c(=S)n1-c1ccccc1 (stereo not shown),6.36%
16,COc1ccc(C2Nc3ccccc3C(=O)N2Cc2ccco2)cc1COc1ccc([N+](=O)[O-])cc1 (stereo not shown),11.3%
17,Cc1ccc(C(=O)N2CCCCC2)cc1NC1=C(Cl)C(=O)N(Cc2ccccc2)C1=O,6.72%
18,COc1cc2c(=O)n(Cc3ccccc3)c(=O)n(CC(=O)NCCc3ccccc3)c2cc1OC,12%
19,CC(C(=O)Nc1ccc2nccnc2c1)N1C(=O)C2C3C=CC(C3)C2C1=O (stereo not shown),13.1%
20,CCOC(=O)c1[nH]c(C)c(C(=O)Nc2ccc(C)cc2C)c1C,2.73%
21,Nc1nonc1-n1nnc(C(=O)N/N=C/c2ccc(Br)cc2)c1-c1ccc2c(c1)OCO2,5.21%
22,CC(C)(C)C(=O)Nc1c(Cl)cccc1OC(F)(F)F,12.4%

row,Compound,"hERG current change (%, negative = inhibition) at 1uM"
1,NC(=O)c1ccc(N2CCOCC2)nc1,-8%
2,COc1ccc(C(=O)Nc2ccnn2C2CCN(C(=O)c3cc(C)on3)CC2)cc1,10.4%
3,O=C(COC(=O)Cc1cn2ccsc2n1)NCc1ccc2c(c1)OCO2,-1.61%
4,c1ccc(-c2noc(CSc3nnc(Cc4cccs4)n3-c3ccccc3)n2)cc1,13.2%
5,CCC(C)C12CN3CCN(CC(C)(C3)C1O)C2 (stereo not shown),12.2%
6,COc1ccc(-n2nc(C(=O)NCC(=O)NCCCN3CCOCC3)c3ccccc3c2=O)cc1Cl,4.53%
7,Cc1cc(C)c2nc(SCC(=O)N(C)C3CCS(=O)(=O)C3)cc(C)c2c1 (stereo not shown),14.8%
8,COc1cc2c(cc1NCc1ccccn1)oc1ccccc12,-8.02%
9,CC(C)=CCc1c2c(c3occ(-c4ccc(O)cc4)c(=O)c3c1O)C=CC(C)(C)O2,15.3%
10,COc1ccccc1CNC(=O)CN1C(=O)NC2(CCCc3sccc32)C1=O (stereo not shown),7.34%
11,COc1cc(S(=O)(=O)Nc2ccc(C)cc2)ccc1N=Cc1c(C)[nH]n(-c2ccc(C)cc2)c1=O,12.6%
12,C/C(=N\NC(=S)NC(C)C)c1ccco1,0.11%
13,COc1ccc(C2CC(=O)C=C(NCc3ccc4c(c3)OCO4)C2)cc1 (stereo not shown),-32.6%
14,O=C(Nc1ccccc1-c1ccccc1)c1cccs1,9.1%
15,Cc1ccc(C(=O)c2ccccc2C(=O)Nc2ccccc2)cc1,12.6%
16,O=C(CSc1nnc(COc2ccc(Br)cc2)o1)NC1CCCCC1,10.8%
17,COc1ccc(C(=S)N2CCOCC2)cc1OS(=O)(=O)c1ccc(Br)cc1,-16.3%
18,O=C(CCS(=O)(=O)c1ccc(Br)cc1)N1CCN(c2ccccc2)CC1,4.18%
19,Cc1cccc(CCNS(=O)(=O)c2ccc(S(=O)(=O)NC3CCCC3)cc2)c1,8.77%
